# Experimental data taken from PubChem BioAssay AID624173 (National Center for Advancing Translational Sciences (NCATS), 2012).
# Out of some 410,000 compounds screened, about 490 (0.12%) were called active. Inconclusive results, whose numbers are uncertain, are shown with a selection of clear calls. Calls come from the whole dose curve; as a rule, active = well fitted inhibition curve with a large enough effect; inconclusive = small, poorly fitted or top-dose-only effect; inactive = flat fitted curve, though single readings scatter. A potency beside an inconclusive call is a rough fit, not a confirmed value.
# Target: pyruvate kinase (Trypanosoma brucei) (UniProt Q57TT1)
# Experiment: qHTS of Trypanosoma Brucei Inhibitors; note: nearly all actives have a fitted effect of over 50% in size
# Conditions: TbPYK enzyme, Kinase-Glo Plus ATP luminescence, 45 min; series mostly up to 76.8 µM
# In short: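 Activity of T. brucei pyruvate kinase was followed by Kinase-Glo Plus luminescence after the enzyme reacted 45 min at room temperature with 130 uM ADP (final) and substrate. Test compounds were added before ADP at multiple concentrations.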
# Potency is the fitted concentration of half-maximal effect; tags give direction and shape of the fitted curve.
row,SMILES,Potency
1,CN1\C(=C/C=C/C=C/C=[N+](C)C)C(C)(C)c2ccccc21,"inconclusive: 28.2 µM [inhibitor, partial curve]"
2,CN1C(=O)C(N=Nc2ccc([N+](=O)[O-])cc2)SC1=S (centres undefined),"inconclusive: 22.4 µM [inhibitor, partial curve, poor fit]"
3,Cc1cc(-c2csc(NCc3ccccc3)n2)c(C)n1C,"inconclusive: 15.8 µM [inhibitor, partial curve]"
4,Cc1ccc(C(=O)/C=C/NNC(=O)c2ccccc2O)cc1,inactive
5,CCc1nn2cc(-c3ccccc3)nc2s1,"inconclusive: 25.1 µM [inhibitor, partial curve, poor fit]"
6,O=C(NC1CCCCC1)C(c1cccs1)N(C(=O)c1ccccn1)c1ccccc1 (centres undefined),inactive
7,O=C(Nc1ncc([N+](=O)[O-])s1)c1cccs1,"inconclusive: 25.1 µM [inhibitor, partial curve]"
8,COc1ccc2c(C)cc3n[nH]c(=S)n3c2c1,"inconclusive: 12.6 µM [inhibitor, full curve, poor fit]"
9,COc1ccc(C(=O)NCC(c2ccc(N(C)C)cc2)N2CCc3ccccc32)cc1OC (centres undefined),inactive
10,CCN1CCN(C(=S)c2ccc(OCC(=O)NCc3ccccc3)cc2)CC1,"inconclusive: 12.6 µM [inhibitor, partial curve, poor fit]"
11,CC1(C)Cc2sc3c(=O)[nH]c(=S)[nH]c3c2CO1,"inconclusive: 35.5 µM [inhibitor, single point]"
12,C=C1c2cccc(O)c2C(=O)C2C(=O)[C@]3(O)C(=O)C(C(N)=O)C(=O)[C@@H](N(C)C)[C@@H]3[C@@H](O)[C@H]12 (some centres undefined),"inconclusive: 50.1 µM [inhibitor, single point]"
13,Cn1c(CSCc2ccc(F)cc2)n[nH]c1=S,"inconclusive: 22.4 µM [inhibitor, partial curve, poor fit]"
14,Cc1ccc(C(=O)N/C(=C/c2ccco2)C(=O)Nc2cccc(C(=O)O)c2)cc1,"inconclusive: 31.6 µM [inhibitor, single point]"
15,Cc1ccc(C)c(NC(=S)N2CCN(c3cccc(C(F)(F)F)c3)CC2)c1,"inconclusive: 25.1 µM [inhibitor, single point]"
16,COc1cccc(-n2c(CNC(=O)OC(C)(C)C)n[nH]c2=S)c1,"inconclusive: 20 µM [inhibitor, partial curve, poor fit]"
17,CCOCCCNS(=O)(=O)c1ccc(NC(=O)c2ccc(OC)c([N+](=O)[O-])c2)cc1,"inconclusive: 31.6 µM [inhibitor, single point]"
18,CCOC(=O)C1C(=O)CC(C)(O)C(C(=O)OCC)C1c1ccc(Br)o1 (centres undefined),"inconclusive: 25.1 µM [inhibitor, partial curve]"
19,N=C(N)SCc1ccc(O)c([N+](=O)[O-])c1,inactive
20,CCS(=O)(=O)N1Cc2ccccc2CC1C(=O)Nc1nccs1 (centres undefined),inactive
21,Cc1nnc(N=c2ssnc2Cl)o1,"inconclusive: 8.91 µM [inhibitor, partial curve]"
22,Cn1c(CC2Sc3ccccc3NC2=O)nnc1SCC(=O)c1ccc(Cl)cc1 (centres undefined),"inconclusive: 25.1 µM [inhibitor, partial curve]"
23,COc1ccc2c(c1)Cc1sc(NC(C)=O)nc1-2,"inconclusive: 50.1 µM [inhibitor, single point]"

row,SMILES,Potency
1,CCN(CC)C(=O)Cn1c(=O)cc(C)c2c(C)nn(-c3ccc(C)cc3)c21,inactive
2,COc1ccc2nc(C)cc(SCC(=O)O)c2c1,"inconclusive: 35.5 µM [inhibitor, single point]"
3,CCOc1cccc2c1N[C@@H](c1ccc(C(=O)O)cc1)[C@H]1CC=C[C@@H]21,"inconclusive: 15.8 µM [inhibitor, partial curve]"
4,Cc1cc(C)c2[nH]c(=O)c(C(c3nnnn3C(C)(C)C)N(Cc3ccco3)CC3CCCO3)cc2c1 (centres undefined),inactive
5,CC1CCN(S(=O)(=O)c2ccc3c(c2)C(Cl)(Cl)C(=O)N3)CC1,"inconclusive: 31.6 µM [inhibitor, single point]"
6,COc1ccc(OC)c(NC(=O)c2ccccc2N(Cc2ccccc2)S(C)(=O)=O)c1,active: 12.6 µM
7,CC1(C)CC(=O)C(C(C2=C(O)CC(C)(C)CC2=O)c2ccc(Br)s2)C(=O)C1 (centres undefined),"inconclusive: 31.6 µM [inhibitor, partial curve, poor fit]"
8,Cc1csc(NC(=O)CSc2nnc(Cn3c(=O)sc4ccccc43)n2-c2ccccc2)n1,"inconclusive: 28.2 µM [inhibitor, partial curve]"
9,CCC(C)(C(=O)NC1CCCCC1)N(C(=O)c1ccccn1)c1ccc(C)cc1 (centres undefined),"inconclusive: 39.8 µM [inhibitor, single point]"
10,CCOc1ccc(OCc2ccc(C(=O)Nc3cccnc3)o2)cc1,inactive
11,Cc1ccc(C)n1-c1cc(S(=O)(=O)N2CCOCC2)ccc1N1CCCC1,"inconclusive: 28.2 µM [inhibitor, single point]"
12,COc1ccc(NC(=O)c2cc(-c3ccc(C)o3)nc3ccccc23)cc1OC,"inconclusive: 25.1 µM [inhibitor, partial curve, poor fit]"
13,Cc1n[nH]c(=S)n1/N=C/c1c(O)ccc2ccccc12,"inconclusive: 1.12 µM [inhibitor, full curve, poor fit]"
14,COc1ccc(-c2nnc(NC(=O)c3cc(C)on3)s2)cc1,"inconclusive: 39.8 µM [inhibitor, single point]"
15,CCOC(=O)c1scc(-c2ccccc2)c1S(=O)(=O)Nc1cc(Cl)c(OC)cc1OC,"inconclusive: 7.94 µM [inhibitor, full curve]"
16,COc1ccc(-n2c(C(C)n3nc(C)c([N+](=O)[O-])c3C)n[nH]c2=S)cc1 (centres undefined),"inconclusive: 50.1 µM [inhibitor, single point]"
17,COc1ccc(N2C(=O)[C@@H]3[C@H](C2=O)[C@H]2C=CC=NN2[C@@H]3C(=O)Nc2ccc(Cl)cc2)cc1,"inconclusive: 50.1 µM [inhibitor, single point]"
18,CN(Cc1ccccc1)C(=S)NC(=O)c1cccs1,"inconclusive: 20 µM [inhibitor, partial curve, poor fit]"
19,CC(C(=O)N1c2ccc(F)cc2CCC1C)N1C(=O)c2ccccc2C1=O (centres undefined),inactive
20,O=C(Nc1nc2c(F)cccc2s1)c1ccc([N+](=O)[O-])o1,inactive
21,COc1ccc(-c2cc3nc(C)c(CCC(=O)NCCc4ccc(Cl)cc4)c(C)n3n2)c(OC)c1,inactive
22,Cc1ccccc1NC(=O)COc1ccc2oc3c(c2c1)CCCC3,inactive
23,COc1cc(CNn2cn[nH]c2=S)cc(Br)c1OCc1ccccc1F,"inconclusive: 15.8 µM [inhibitor, partial curve, poor fit]"

row,SMILES,Potency
1,Nc1cc(-c2ccncc2)c[nH]c1=O,"inconclusive: 50.1 µM [inhibitor, single point]"
2,O=[N+]([O-])c1cccc(-c2c(-c3ccccc3)ncc3cc(F)ccc23)c1,inactive
3,COC(=O)C1CCN(CC(=O)NC(=O)NC2CCCCC2)CC1,inactive
4,COc1ccc(Cl)cc1C(=O)Nc1ccccc1N1CCCCC1,inactive
5,CCN1/C(=C/C(=S)Nc2ccccc2)Sc2ccccc21,"inconclusive: 12.6 µM [inhibitor, partial curve]"
6,Cc1ccc(N/C=C2\CCCCC2=O)nc1,inactive
7,Nc1ccc(C(=O)N/N=C/c2cccc(Oc3ccccc3)c2)cc1,inactive
8,CCc1ccc(S(=O)(=O)Nc2cc(SCC(=O)O)c(O)c3ccccc23)cc1,"inconclusive: 28.2 µM [inhibitor, partial curve, poor fit]"
9,CCOC(=O)c1ccc(N2CCN(c3cc(C)ccc3C)CC2)c(NC(=O)Nc2ccc(Cl)cc2)c1,inactive
10,CC(=O)Nc1nc(-c2ccc3c(c2)CCO3)cs1,inactive
11,CCOP(=O)(Cc1cc(C(=O)CC)c(C)o1)OCC,"inconclusive: 20 µM [inhibitor, partial curve]"
12,COc1ccc(NC(=O)CSc2nnc(-c3ccco3)c(-c3ccco3)n2)cc1OC,"inconclusive: 50.1 µM [inhibitor, single point]"
13,O=C(O)c1ccc(-n2c(-c3ccccc3)n[nH]c2=S)cc1,"inconclusive: 15.8 µM [inhibitor, partial curve, poor fit]"
14,Cc1cc(NC(=O)c2ocnc2C)no1,"inconclusive: 5.01 µM [inhibitor, partial curve, poor fit]"
15,Cc1cc(C(F)(F)F)nn1-c1nc(-c2ccco2)cc(C(F)(F)F)n1,"inconclusive: 8.91 µM [inhibitor, full curve, poor fit]"
16,CC(=NNC(=S)N1CCCCC1)c1ccccn1,"inconclusive: 50.1 µM [inhibitor, single point]"
17,Cc1cnc(C(=O)Nc2cccc(-c3nnc4n3CCCCC4)c2)cn1,inactive
18,OCCCn1c(C2CCCN2c2nc(-c3ccc(F)cc3)cs2)nc2cc(C(F)(F)F)ccc21 (centres undefined),"inconclusive: 28.2 µM [inhibitor, partial curve, poor fit]"
19,Cc1ccc(/C=N/Nc2ccc3ccccc3n2)o1,inactive
20,COC(=O)COc1ccc(-c2nnc(Nc3ccc(O)cc3)c3ccccc23)cc1,inactive
21,CCCCc1n[nH]c(=S)n1Cc1ccc(C)cc1,"inconclusive: 11.2 µM [inhibitor, partial curve, poor fit]"
22,Cc1ccc(-c2nnc(N3CCOCC3)c3ccccc23)cc1S(=O)(=O)NCC1CCCO1 (centres undefined),inactive
23,CC(C)c1cnc2c(c1SCC(=O)NC(C)(C)C)c(=O)n(C)c(=O)n2C,"inconclusive: 28.2 µM [inhibitor, single point]"
